{
  "source": "the RNAGym collection of RNA variant scans (doi:10.1101/gad.245936.114)",
  "parents": {"B1": {"name": "tRNA (parent)", "chain": "CUCUCGGUAGCCAAGUUGGUUUAAGGCGCAAGACUUUAAUUUAUCACUACGAAAUCUUGAGAUCGGGCGUUCGACUCGCCCCCGGGAGAUUUUUUCCUCGAGCAA"}},
  "note": "Variants at the floor of the assay are shown more often than the library holds them.",
  "data": [
    {"variants_of": "B1", "experiment": "nonsense suppression (GFP-seq) (ratio to wild type); higher = more function; SUP4oc tRNA, yeast GFP reporter sort-seq", "how_it_was_run": "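Raffinose/galactose medium with 80 mg/L adenine was used to grow yeast carrying genome-integrated tRNA variants (~3% random-mutation library), RFP, and a galactose-driven GFP ochre reporter. Cells went into GFP/RFP bins, which were Illumina-sequenced, and variants with ≥100 reads and ≥30 cells were scored. Nonsense suppression (GFPSEQ) is the per-bin median GFP/RFP weighted by estimated cell share and expressed relative to the unmutated parent tRNA.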", "values": [
      {"variant": "U21G A74G G85U", "nonsense suppression": "≤ 0.026"},
      {"variant": "U21G A74U", "nonsense suppression": "≤ 0.026"},
      {"variant": "U21G A74U C82A", "nonsense suppression": "≤ 0.026"},
      {"variant": "U21G A74U G84A", "nonsense suppression": "≤ 0.026"},
      {"variant": "U21G C27G U35C U55A G61A A87U", "nonsense suppression": "≤ 0.026"},
      {"variant": "U21G C27U U70A", "nonsense suppression": "≤ 0.026"},
      {"variant": "U21G C29U", "nonsense suppression": 0.809},
      {"variant": "U21G C29U C82A", "nonsense suppression": "≤ 0.026"},
      {"variant": "U21G C29U C82U", "nonsense suppression": "≤ 0.026"},
      {"variant": "U21G C34A", "nonsense suppression": "≤ 0.026"},
      {"variant": "U21G C34U G73C", "nonsense suppression": "≤ 0.026"},
      {"variant": "U21G C56A", "nonsense suppression": "≤ 0.026"},
      {"variant": "U21G C64A", "nonsense suppression": "≤ 0.026"},
      {"variant": "U21G C64G A87C", "nonsense suppression": "≤ 0.026"},
      {"variant": "U21G C64G U70G", "nonsense suppression": "≤ 0.026"},
      {"variant": "U21G C68A C81A", "nonsense suppression": "≤ 0.026"},
      {"variant": "U21G C72A C82U", "nonsense suppression": "≤ 0.026"},
      {"variant": "U21G C72U C83G", "nonsense suppression": "≤ 0.026"},
      {"variant": "U21G C77G C79A C82U A87C", "nonsense suppression": "≤ 0.026"},
      {"variant": "U21G C77U C82U", "nonsense suppression": "≤ 0.026"},
      {"variant": "U21G C79A", "nonsense suppression": "≤ 0.026"},
      {"variant": "U21G C80G G88C", "nonsense suppression": "≤ 0.026"},
      {"variant": "U21G C80U G88C", "nonsense suppression": "≤ 0.026"},
      {"variant": "U21G G25C G32A C68U", "nonsense suppression": "≤ 0.026"},
      {"variant": "U21G G25U G69C C80G", "nonsense suppression": "≤ 0.026"},
      {"variant": "U21G G28A A33U G78A", "nonsense suppression": "≤ 0.026"},
      {"variant": "U21G G28U A87C", "nonsense suppression": "≤ 0.026"},
      {"variant": "U21G G32A", "nonsense suppression": "≤ 0.026"},
      {"variant": "U21G G32A U63C G65U", "nonsense suppression": "≤ 0.026"},
      {"variant": "U21G G32A U76G", "nonsense suppression": "≤ 0.026"},
      {"variant": "U21G G32C", "nonsense suppression": "≤ 0.026"},
      {"variant": "U21G G32C U55C", "nonsense suppression": "≤ 0.026"},
      {"variant": "U21G G32C U58C G61A C77U", "nonsense suppression": "≤ 0.026"},
      {"variant": "U21G G59C U71C G84A A89G", "nonsense suppression": "≤ 0.026"},
      {"variant": "U21G G61A C64A C81A", "nonsense suppression": "≤ 0.026"},
      {"variant": "U21G G61C", "nonsense suppression": 0.105},
      {"variant": "U21G G66C C68A U70G", "nonsense suppression": "≤ 0.026"},
      {"variant": "U21G G73C A89C", "nonsense suppression": "≤ 0.026"},
      {"variant": "U21G G78U C82A", "nonsense suppression": "≤ 0.026"},
      {"variant": "U21G G85A", "nonsense suppression": 1.08},
      {"variant": "U21G G88U", "nonsense suppression": "≤ 0.026"},
      {"variant": "U21G U22C U71A", "nonsense suppression": "≤ 0.026"},
      {"variant": "U21G U22G", "nonsense suppression": 0.571},
      {"variant": "U21G U35G G61C", "nonsense suppression": "≤ 0.026"},
      {"variant": "U21G U55C C79A", "nonsense suppression": "≤ 0.026"},
      {"variant": "U21G U57C C79G A89C", "nonsense suppression": "≤ 0.026"},
      {"variant": "U21G U57G C64U G69C U70G U76A", "nonsense suppression": "≤ 0.026"},
      {"variant": "U21G U57G U70G", "nonsense suppression": "≤ 0.026"},
      {"variant": "U21G U70A U71C", "nonsense suppression": "≤ 0.026"},
      {"variant": "U21G U70A U76G", "nonsense suppression": "≤ 0.026"},
      {"variant": "U21G U76G", "nonsense suppression": "≤ 0.026"},
      {"variant": "U22A", "nonsense suppression": 1.13},
      {"variant": "U22A A24G C27G G61C G86A", "nonsense suppression": "≤ 0.026"},
      {"variant": "U22A A24G C83G", "nonsense suppression": "≤ 0.026"},
      {"variant": "U22A A24U G65A U70G", "nonsense suppression": "≤ 0.026"},
      {"variant": "U22A A30G A60C", "nonsense suppression": "≤ 0.026"},
      {"variant": "U22A A30U", "nonsense suppression": 0.177},
      {"variant": "U22A A31C G32C C56G U57A", "nonsense suppression": "≤ 0.026"},
      {"variant": "U22A A33U C34A U76C", "nonsense suppression": "≤ 0.026"},
      {"variant": "U22A C27G C29G U76G", "nonsense suppression": "≤ 0.026"},
      {"variant": "U22A C27G C80G", "nonsense suppression": "≤ 0.026"},
      {"variant": "U22A C29U C34U G61C", "nonsense suppression": "≤ 0.026"},
      {"variant": "U22A C34A", "nonsense suppression": "≤ 0.026"},
      {"variant": "U22A C34G U55C G69A", "nonsense suppression": "≤ 0.026"},
      {"variant": "U22A C34U C79U G85A", "nonsense suppression": "≤ 0.026"},
      {"variant": "U22A C34U G84C", "nonsense suppression": "≤ 0.026"},
      {"variant": "U22A C77U C79U", "nonsense suppression": "≤ 0.026"},
      {"variant": "U22A C79A A87C", "nonsense suppression": "≤ 0.026"},
      {"variant": "U22A C79G G88U", "nonsense suppression": "≤ 0.026"},
      {"variant": "U22A C82A", "nonsense suppression": "≤ 0.026"},
      {"variant": "U22A G25C", "nonsense suppression": "≤ 0.026"},
      {"variant": "U22A G25U C34U", "nonsense suppression": "≤ 0.026"},
      {"variant": "U22A G26A", "nonsense suppression": "≤ 0.026"},
      {"variant": "U22A G28A", "nonsense suppression": 1.14},
      {"variant": "U22A G28U A54U U70G A87C", "nonsense suppression": "≤ 0.026"},
      {"variant": "U22A G61C", "nonsense suppression": 0.203},
      {"variant": "U22A G66A G69U", "nonsense suppression": "≤ 0.026"},
      {"variant": "U22A G73U U76A", "nonsense suppression": "≤ 0.026"},
      {"variant": "U22A G88A", "nonsense suppression": "≤ 0.026"},
      {"variant": "U22A U35C U57C", "nonsense suppression": "≤ 0.026"},
      {"variant": "U22A U57A U63A U70G", "nonsense suppression": "≤ 0.026"},
      {"variant": "U22A U63C C77G", "nonsense suppression": "≤ 0.026"},
      {"variant": "U22A U76C", "nonsense suppression": 0.967},
      {"variant": "U22C", "nonsense suppression": 1}
    ]}
  ]
}
